This is a selection; strong and weak results do not stand in their true shares. For some assays here: At the low end of the ranking the order means little. This is one part of the list. For some assays here: The exact form of the protein is not confirmed.
What was measured:
Assay in all cases: universal protein binding microarray (PBM)
Details in all cases: transcription factors of Arabidopsis thaliana; high values mean tight binding; most listed sequences are background and not binding sites; double strand, one strand shown
GST-NTL6(1-168) = GST-NTL6(1-168) (UniProt Q9SCK6)
GST-ANAC055(1-171) = biological target: T1, GST-ANAC055(1-171) (UniProt Q9LDY8)
T1 sequence: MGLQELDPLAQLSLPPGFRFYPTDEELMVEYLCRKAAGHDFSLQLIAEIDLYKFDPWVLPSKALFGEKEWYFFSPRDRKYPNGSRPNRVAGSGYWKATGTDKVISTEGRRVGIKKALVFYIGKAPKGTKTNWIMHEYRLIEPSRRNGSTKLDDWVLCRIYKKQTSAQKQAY

GST-ATAF1 NAC domain = biological target: T2, GST-ATAF1 NAC domain (UniProt Q39013)
T2 sequence: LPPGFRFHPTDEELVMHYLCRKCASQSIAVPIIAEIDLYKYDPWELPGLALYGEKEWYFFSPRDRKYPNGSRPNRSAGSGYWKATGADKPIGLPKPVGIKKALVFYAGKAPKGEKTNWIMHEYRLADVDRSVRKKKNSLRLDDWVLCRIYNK

[1] = biological target: T3, GST-ANAC092(1-285) full length (UniProt Q9FKA0)
T3 sequence: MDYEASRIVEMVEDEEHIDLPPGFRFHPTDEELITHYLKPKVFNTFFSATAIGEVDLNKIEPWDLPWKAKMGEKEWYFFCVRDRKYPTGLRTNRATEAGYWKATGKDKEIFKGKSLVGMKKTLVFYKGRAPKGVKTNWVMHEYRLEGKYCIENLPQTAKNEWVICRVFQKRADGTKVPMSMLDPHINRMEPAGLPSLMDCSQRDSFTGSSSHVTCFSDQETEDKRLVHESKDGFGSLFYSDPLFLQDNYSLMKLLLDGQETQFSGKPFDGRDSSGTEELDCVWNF

GST-NAP(1-166) = biological target: T4, GST-NAP(1-166) (UniProt O49255)
T4 sequence: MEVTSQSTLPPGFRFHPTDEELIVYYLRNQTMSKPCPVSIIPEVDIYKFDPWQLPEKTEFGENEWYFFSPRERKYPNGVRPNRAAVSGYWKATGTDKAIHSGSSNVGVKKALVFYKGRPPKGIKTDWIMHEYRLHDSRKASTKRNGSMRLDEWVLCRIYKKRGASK

GST-NTL8 NAC domain = biological target: T5, GST-NTL8 NAC domain (UniProt Q9XIN7)
T5 sequence: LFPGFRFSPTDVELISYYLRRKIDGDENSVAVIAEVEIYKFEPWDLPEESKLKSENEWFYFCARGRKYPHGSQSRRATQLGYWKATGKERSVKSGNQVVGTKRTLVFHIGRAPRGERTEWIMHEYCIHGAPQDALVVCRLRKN

GST-VND3 NAC domain = biological target: T6, GST-VND3 NAC domain (UniProt Q9FH59)
T6 sequence: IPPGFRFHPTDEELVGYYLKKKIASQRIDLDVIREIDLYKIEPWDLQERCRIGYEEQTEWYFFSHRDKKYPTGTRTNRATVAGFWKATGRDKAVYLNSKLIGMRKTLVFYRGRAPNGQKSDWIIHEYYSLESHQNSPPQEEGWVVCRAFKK

[2] = biological target: T7, GST-VOZ2 (Arabidopsis thaliana) (UniProt Q9SLB9)
T7 sequence: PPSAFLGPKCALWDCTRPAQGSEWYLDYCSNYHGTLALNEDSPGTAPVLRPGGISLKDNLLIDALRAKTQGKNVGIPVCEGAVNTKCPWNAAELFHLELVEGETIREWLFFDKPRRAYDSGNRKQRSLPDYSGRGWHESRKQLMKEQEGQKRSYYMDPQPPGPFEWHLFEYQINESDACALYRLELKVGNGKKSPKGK

GST-WRKY1(266-371) = GST-WRKY1(266-371) (UniProt Q9SI37)
GST-NST2(1-184) = biological target: T8, GST-NST2(1-184) (UniProt Q9M274)
T8 sequence: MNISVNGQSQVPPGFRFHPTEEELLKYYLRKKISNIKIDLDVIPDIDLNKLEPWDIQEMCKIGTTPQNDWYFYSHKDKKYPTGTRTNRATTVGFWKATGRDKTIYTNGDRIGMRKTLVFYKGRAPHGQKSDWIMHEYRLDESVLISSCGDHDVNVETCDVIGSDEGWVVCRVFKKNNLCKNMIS

GST-VND7 NAC domain = biological target: T9, GST-VND7 NAC domain (UniProt Q9C8W9)
T9 sequence: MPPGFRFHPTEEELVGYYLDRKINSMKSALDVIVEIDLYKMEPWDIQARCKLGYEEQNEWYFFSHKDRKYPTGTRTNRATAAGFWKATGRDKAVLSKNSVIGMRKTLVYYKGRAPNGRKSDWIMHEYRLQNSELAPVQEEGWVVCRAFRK

GST-ANAC019 NAC domain = biological target: T10, GST-ANAC019 NAC domain (UniProt Q9C932)
T10 sequence: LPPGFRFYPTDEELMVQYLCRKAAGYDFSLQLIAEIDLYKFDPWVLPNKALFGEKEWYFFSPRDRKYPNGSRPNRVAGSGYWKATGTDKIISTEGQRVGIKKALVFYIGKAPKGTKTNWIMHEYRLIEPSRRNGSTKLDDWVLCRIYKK

GST-ANAC092(1-176) = biological target: T11, GST-ANAC092(1-176) (UniProt Q9FKA0)
T11 sequence: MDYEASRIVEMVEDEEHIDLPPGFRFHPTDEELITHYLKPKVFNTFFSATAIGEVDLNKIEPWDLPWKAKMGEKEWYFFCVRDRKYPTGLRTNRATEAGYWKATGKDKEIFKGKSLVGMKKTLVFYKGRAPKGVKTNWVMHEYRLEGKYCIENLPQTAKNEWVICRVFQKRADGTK

Chain of UniProt Q9SI37 (Q9SI37 266-371): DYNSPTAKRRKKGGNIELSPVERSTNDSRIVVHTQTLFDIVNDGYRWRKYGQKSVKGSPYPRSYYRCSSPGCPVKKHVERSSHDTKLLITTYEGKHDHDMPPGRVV

Row | Sequence | binding signal (GST-NTL6(1-168)) | binding signal (GST-ANAC055(1-171)) | binding signal (GST-ATAF1 NAC domain) | binding signal [1] | binding signal (GST-NAP(1-166)) | binding signal (GST-NTL8 NAC domain) | binding signal (GST-VND3 NAC domain) | binding signal [2] | binding signal (GST-WRKY1(266-371)) | binding signal (GST-NST2(1-184)) | binding signal (GST-VND7 NAC domain) | binding signal (GST-ANAC019 NAC domain) | binding signal (GST-ANAC092(1-176))
1 | CACGCTAA | 0.0834 E-score | 0.0365 E-score | -0.00971 E-score | 0.471 E-score | 0.0299 E-score | 0.0471 E-score | 0.0422 E-score | 0.0699 E-score | -0.0903 E-score | – | – | – | –
2 | ACGCAACT | 0.105 E-score | – | – | – | – | 0.0824 E-score | 0.462 E-score | 0.237 E-score | -0.0613 E-score | 0.39 E-score | – | – | –
3 | ACCCCGCC | 0.182 E-score | 0.123 E-score | – | – | 0.1 E-score | – | 0.0494 E-score | 0.401 E-score | -0.00153 E-score | – | – | – | –
4 | GCACGAAA | – | – | – | – | – | – | – | 0.0912 E-score | -0.135 E-score | – | 0.145 E-score | – | –
5 | GACGCAAC | 0.00137 E-score | 0.293 E-score | – | – | – | 0.0123 E-score | 0.295 E-score | 0.16 E-score | – | 0.295 E-score | – | 0.294 E-score | –
6 | CACGTCAA | -0.00641 E-score | – | – | – | 0.299 E-score | -0.0316 E-score | 0.332 E-score | 0.0433 E-score | – | 0.252 E-score | – | – | –
7 | ACGTCTCC | 0.0291 E-score | – | – | 0.33 E-score | 0.273 E-score | 0.052 E-score | 0.34 E-score | 0.0104 E-score | – | – | – | – | –
8 | TGAAGAAA | 0.339 E-score | 0.114 E-score | 0.129 E-score | – | 0.0893 E-score | – | 0.121 E-score | 0.0879 E-score | – | – | – | 0.151 E-score | –
9 | GACGCAAA | -0.0249 E-score | 0.0207 E-score | – | – | 0.233 E-score | 0.0481 E-score | 0.135 E-score | 0.137 E-score | – | – | – | – | 0.382 E-score
10 | GTTCCTTA | 0.458 E-score | 0.0564 E-score | – | – | – | – | – | -0.0345 E-score | -0.0602 E-score | 0.139 E-score | 0.147 E-score | 0.141 E-score | 0.136 E-score
11 | GCTAAGTA | 0.429 E-score | 0.0331 E-score | 0.0108 E-score | 0.0369 E-score | – | -0.0278 E-score | – | -0.042 E-score | -0.0209 E-score | 0.00663 E-score | 0.0222 E-score | -0.0121 E-score | 0.00873 E-score
12 | CTACGTAA | 0.0836 E-score | – | – | 0.378 E-score | – | 0.105 E-score | – | -0.0348 E-score | -0.0301 E-score | 0.0582 E-score | 0.345 E-score | – | 0.329 E-score
13 | ATTTCCCC | – | – | – | – | – | 0.428 E-score | 0.205 E-score | 0.175 E-score | – | – | – | – | –
14 | ATTCCGTA | 0.17 E-score | – | – | – | 0.381 E-score | – | – | -0.0119 E-score | 0.0324 E-score | – | 0.374 E-score | – | 0.209 E-score
15 | CAGTCAAA | 0.0796 E-score | 0.063 E-score | – | – | 0.0821 E-score | 0.104 E-score | 0.0343 E-score | 0.0706 E-score | – | -0.0211 E-score | – | – | 0.125 E-score

From article PMC4081100
